The source gives no read counts; variants with many changes may rest on few reads.
B1: LINE1-mini (parent)
chain: GGCAGAGCUCAACACAGCGUGGCAAAGUGGCUGUGGCUAGACUGCC

Variants of: B1
Assay: self-cleavage, relative activity (ratio to wild type); higher = more cleavage; in vitro, sequencing; the parent is a self-cleaving ribozyme
GGCAGAGCUCGACACAGCGUUGCAAAGUGGCUGUGGCAAGACUGCC [A11G G21U U38A] gave a self-cleavage of 0.01. In the case of GGCAGAGCUCGACAAAGCGUUGAAAAGUGACUGUGGUUAGACUGCC [A11G C15A G21U C23A G30A C37U], the self-cleavage is reported as 0.04. For GGCAGAGCUCGACACAGCGUGUCAAAGUCUCUGUGGCUACACUGCC [A11G G22U G29C G30U G40C], the self-cleavage was 0.02. Work on GGCAGAGCUCGACAAAGCGUGGCAAAGUGGCUGUGGCUAGAGUGCC [A11G C15A C42G] yielded a self-cleavage of 0.01. GGCAGAGCUCGAUACAGCGUGCCAAAGUGGCUGUGCCUAGACUGCC [A11G C13U G22C G36C] gave a self-cleavage of 0.01. In the case of GGCAGAGCUCGACACAGCGUGGUUAAGUGGCGGUGGCUAGACUGCC [A11G C23U A24U U32G], the self-cleavage is reported as 0. In the case of GGCAGAGCUCGACACAGCGUGACAAAGUGGCUGUGGCUAGACCGCC [A11G G22A U43C], the self-cleavage is reported as 0.02. GGCAGAGCUCGACACAGCAUGGCAAAGUGGCUGUGGCUAGAGUGCC [A11G G19A C42G] showed a self-cleavage of 0.02. In the case of GGCAGAGCUCGACACAGCGUGGUAAAGUGGCGGUGGCUAGACUGCC [A11G C23U U32G], the self-cleavage is reported as 0.02. For GGCAGAGCUCGACACAGCGUGGCAAAGUGGCUGUGGCUAGAUUUCC [A11G C42U G44U], the self-cleavage was 0.04. Work on GGCAGAGCUCGACACAGCGUGGGAAAGGGGCUGAGGCUAGACUGCC [A11G C23G U28G U34A] yielded a self-cleavage of 0.01. GGCAGAGCUCGAGACAGCGUGGCAAAUUGGCUGUGGCUCGACUGCC [A11G C13G G27U A39C] showed a self-cleavage of 0.03. Variant GGCAGAGCUCGAUACAGCGUGGCUAAGUGACUGUGGCUAGACUGCC [A11G C13U A24U G30A] has a self-cleavage of 0.04. GGCAGAGCUCGACACAGCGUGGGAAUGUCGCUGUGGCUAGACUGCC [A11G C23G A26U G29C] showed a self-cleavage of 0. Variant GGCAGAGCUCGACACAGCGUUGCAAAGUGGCUGUGCCUAGACUGCC [A11G G21U G36C] has a self-cleavage of 0.01. With GGCAGAGCUCGACACAGCGUGGCAAAGUGGCUGUGGGUAGACUGUC [A11G C37G C45U] the self-cleavage was 0. GGCAGAGCUCGACACAGCAUGGCAAAGUGGCUGUGUCUAGACUGCC [A11G G19A G36U] gave a self-cleavage of 0.02. In the case of GGCAGAGCUCGACACAGCUUGGCAAAGUAGCUAUGGCUAGACUGCC [A11G G19U G29A G33A], the self-cleavage is reported as 0.01. GGCAGAGCUCGACACAGCGUGGCAAAAGGGCUGUGGCUAGACUGCC [A11G G27A U28G] gave a self-cleavage of 0.02. With GGCAGAGCUCGACACAGCGUGACAAAGUGGCUGUGGCUAGACUUCC [A11G G22A G44U] the self-cleavage was 0.02. Work on GGCAGAGCUCGACAGAGCGUGGAAAAAUGGCUGUGGCCAUACUGCC [A11G C15G C23A G27A U38C G40U] yielded a self-cleavage of 0. In the case of GGCAGAGCUCGACACACCGUGGCAAAGUGGUUGUGGCUAGACUGAC [A11G G17C C31U C45A], the self-cleavage is reported as 0.01. Work on GGCAGAGCUCGACAAAGCGUGGCAAAGUGGCUGUGGUUAGACUGCC [A11G C15A C37U] yielded a self-cleavage of 0.03. GGCAGAGCUCGACACAGUGUCGCAAAGUGGCUGCGGCUAGACUGCC [A11G C18U G21C U34C] showed a self-cleavage of 0.03. Variant GGCAGAGCUCGACAAAGCGUGGCAAAGUGGCAGUGGCUAGACUGCC [A11G C15A U32A] has a self-cleavage of 0.07. Variant GGCAGAGCUCGACACAGCGUGGCAAACUGGCUGUAGCUAGAAUGCC [A11G G27C G35A C42A] has a self-cleavage of 0.01. GGCAGAGCUCGACACAGCGUGGCAAAGUGGAUGUGGCUAGGCUGCC [A11G C31A A41G] showed a self-cleavage of 0.02. In the case of GGCAGAGCUCGACACAGCUUGGCAAAGUGGCUGAGGCUAGACUGCC [A11G G19U U34A], the self-cleavage is reported as 0.03. GGCAGAGCUCGACACAACGUGGCAAAGUGGCUGAGGCUAGACUGCC [A11G G17A U34A] gave a self-cleavage of 0.03. Work on GGCAGAGCUCGACACAGCGUAGCAAAGUGGCUGUGGCUAGACUGCG [A11G G21A C46G] yielded a self-cleavage of 0.03. Work on GGCAGAGCUCGACACAGCGUGGCAAAGUGGUAGUGGCUAGACUGCC [A11G C31U U32A] yielded a self-cleavage of 0.03. Variant GGCAGAGCUCGACACACCGGGGCAAAGUGGCUGUGGCUAGACUGCC [A11G G17C U20G] has a self-cleavage of 0.03. GGCAGAGCUCGACAUAGCGUGGCCAAGUGGUUUUGGCUAGAAUGCC [A11G C15U A24C C31U G33U C42A] gave a self-cleavage of 0.01. With GGCAGAGCUCGACACAGCGUGUCAAAGUGGAUGUGGCUAGACUGCC [A11G G22U C31A] the self-cleavage was 0.01. In the case of GGCAGAGCUCGACAUAGCGUGGCAAAGUGGAUGUGGCUAGAUUGCC [A11G C15U C31A C42U], the self-cleavage is reported as 0.02. Variant GGCAGAGCUCGACACAGCCUCGCAAAGUGGCUGUGGCUAGACUGCC [A11G G19C G21C] has a self-cleavage of 0.01. Variant GGCAGAGCUCGACACAGCGUAGAAAAGUGGCUGUGGCUAGACUGCC [A11G G21A C23A] has a self-cleavage of 0.01. GGCAGAGCUCGACACAGCGUGGAAAAGUAGCUGUGGCUAGACUGCA [A11G C23A G29A C46A] gave a self-cleavage of 0.02. GGCAGAGCUCGACACAGCGUGGCAAAAUGGUUGUGGCUAGACUGCC [A11G G27A C31U] showed a self-cleavage of 0.02. For GGCAGAGCUCGACACAGCGUGGCAAAAUGGCUGUGGCUAGACAGCC [A11G G27A U43A], the self-cleavage was 0.02. For GGCAGAGCUCGACAGGGCGUGGCAAAGUGGCGGUGCCUAGACUGCC [A11G C15G A16G U32G G36C], the self-cleavage was 0. With GGCAGAGCUCGACACAUCGUGGCAAAGUGGCUGUGGCUAGACUGUC [A11G G17U C45U] the self-cleavage was 0.03. GGCAGAGCUCGACACAGCGUGCCCAAGUGGCUGUGGUUAGACUGCC [A11G G22C A24C C37U] gave a self-cleavage of 0.02. GGCAGAGCUCGACACAGUGUGGCAAAGUGGUUGUGGCUAGACUGUC [A11G C18U C31U C45U] showed a self-cleavage of 0.03. For GGCAGAGCUCGACACAGCGUUGCAAAGUCGAUGUGGCUAGACUGCC [A11G G21U G29C C31A], the self-cleavage was 0.02. Work on GGCAGAGCUCGACACACCGUGGCAAAGGGGGUGUGGCUAGACUGCC [A11G G17C U28G C31G] yielded a self-cleavage of 0.02. GGCAGAGCUCGACACAGCGUCGCAAUGUGGCUGUGGCUAGACUUCC [A11G G21C A26U G44U] showed a self-cleavage of 0.02. With GGCAGAGCUCGACAGAGCGUAGCAAAGUGGCUGUGGCUUGACUGCC [A11G C15G G21A A39U] the self-cleavage was 0.01. GGCAGAGCUCGACACAGCGUGGUAAAGUGGCUGUGGCUAGACAGCC [A11G C23U U43A] gave a self-cleavage of 0. Variant GGCAGAGCUCGACACAGCGUCUCAAAGUUGCUGUGGCUAGACUGCC [A11G G21C G22U G29U] has a self-cleavage of 0.01. Work on GGCAGAGCUCGACAUAGCGUGGCAAAGGGGCUGUGGCUAGACUGCU [A11G C15U U28G C46U] yielded a self-cleavage of 0.01. In the case of GGCAGAGCUCGACAUAGAGUGGCAAGGUCGCUGUGGCUAGAUUGCC [A11G C15U C18A A26G G29C C42U], the self-cleavage is reported as 0. With GGCAGAGCUCGACACAGCUUGGCAAAGUGGCUGUGGCUAGACUGUC [A11G G19U C45U] the self-cleavage was 0.02. Variant GGCAGAGCUCGACAAAGCGUGCCAAGGUGGCUGUGGCUAGACUGCC [A11G C15A G22C A26G] has a self-cleavage of 0. With GGCAGAGCUCGACACAGCGUGUCAAAGGGGCUGUGGCUAGACUGCC [A11G G22U U28G] the self-cleavage was 0.04. In the case of GGCAGAGCUCGACACAGCGUGUCAAAGUGGCUGUGGCUAUAAGGCG [A11G G22U G40U C42A U43G C46G], the self-cleavage is reported as 0.05.

From the RNAGym collection of RNA variant scans (doi:10.7554/elife.90254)
